Test results taken from PubChem BioAssay (NCATS).
This list was built around the results that the source calls inconclusive (neither active nor inactive); the mix of calls is not that of the screen. For part of these data: A potency beside an inconclusive call is a rough fit, not a confirmed value. Active and inactive are the calls of the source. Unless noted, calls come from the whole dose curve; as a rule, active = well fitted curve in the direction sought with a large enough effect; inconclusive = small, poorly fitted or top-dose-only effect, or another doubt; inactive = no such curve, though single readings can be large; an effect the other way counts as inactive or inconclusive.

How the values were obtained:
[1] = Primary qHTS for inhibitors of nuclear receptor binding SET domain protein 2 (NSD2) in an RCH-ACV wild type WT cells (2C) (AID 1645877); note: potency is the fitted concentration of half-maximal effect; nearly all actives have a fitted effect of over 70% in size
[2] = Primary fluorescence-based thiol-reactive (MSTI) qHTS assay for identification of artifact compounds. (AID 1845221);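 note: potency is the fitted concentration of half-maximal effect; thiol-reactive compounds lower the probe fluorescence signal; nearly all actives have a fitted effect of over 65% in size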
Method in brief: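 Reactivity toward the thiol probe MSTI (4 uM) is scored by fluorescence at Ex/Em 525/598 nm after 1 h at room temperature. Acetyl-MSTI and MSTI define the activity scale.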

[3] = target: Phospholipid hydroperoxide glutathione peroxidase GPX4 (Homo sapiens) (UniProt P36969); experiment: Primary qHTS Assay for Inhibitors of Recombinant Selenoprotein Glutathione Peroxidase 4 (GPX4) (AID 1845192); note: nearly all actives have a fitted effect of over 65% in size
Chain of UniProt P36969 (P36969 whole entry, looked up): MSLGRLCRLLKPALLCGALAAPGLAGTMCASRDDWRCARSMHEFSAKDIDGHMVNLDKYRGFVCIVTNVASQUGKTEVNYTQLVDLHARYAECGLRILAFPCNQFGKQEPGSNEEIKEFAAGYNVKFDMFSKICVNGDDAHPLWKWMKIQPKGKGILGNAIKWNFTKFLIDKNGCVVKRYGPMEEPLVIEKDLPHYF
Method in brief: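 NADPH consumption followed by fluorescence at 340/450 nm, t=0 and after 15 min at room temperature. Reaction started with cumene hydroperoxide (0.5 mM final) after 30 min compound–GPX4 preincubation; final 200 nM GPX4, 100 nM GR, 1 mM GSH, 0.5 mM NADPH.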

[4] = target: Glutathione peroxidase 1 (Homo sapiens) (UniProt P07203); experiment: Primary qHTS Assay for Inhibitors of Recombinant Selenoprotein Glutathione Peroxidase 1 (GPX1) (AID 1845191); note: potency is the fitted concentration of half-maximal effect; nearly all actives have a fitted effect of over 65% in size
Chain of UniProt P07203 (P07203 whole entry, looked up): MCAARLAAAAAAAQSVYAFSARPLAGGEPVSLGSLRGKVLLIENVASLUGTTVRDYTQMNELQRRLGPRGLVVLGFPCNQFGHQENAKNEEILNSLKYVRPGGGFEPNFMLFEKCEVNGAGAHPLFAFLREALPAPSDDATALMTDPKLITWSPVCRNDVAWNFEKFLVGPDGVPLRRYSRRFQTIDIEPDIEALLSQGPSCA
Method in brief: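 NADPH consumption tracked by fluorescence at 340/450 nm between t=0 and t=15 min, room temperature. Final mix: 10 nM GPX1, 100 nM glutathione reductase, 1 mM GSH, 0.5 mM NADPH, 0.5 mM cumene hydroperoxide, 0.01% BSA; 30 min compound–enzyme preincubation.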

[5] = target: Rap guanine nucleotide exchange factor 3 (Homo sapiens) (UniProt O95398); experiment: Counterscreen qHTS for agonist of cAMP-regulated guanine nucleotide exchange factor 3 (EPAC1) (AID 1645889); details: EPAC1 Rap1B-BODIPY-GDP exchange, fluorescence; series mostly up to 30.8 µM; note: potency is the fitted concentration of half-maximal effect; nearly all actives have a fitted effect of over 40% in size
Chain of UniProt O95398 (O95398 whole entry, looked up): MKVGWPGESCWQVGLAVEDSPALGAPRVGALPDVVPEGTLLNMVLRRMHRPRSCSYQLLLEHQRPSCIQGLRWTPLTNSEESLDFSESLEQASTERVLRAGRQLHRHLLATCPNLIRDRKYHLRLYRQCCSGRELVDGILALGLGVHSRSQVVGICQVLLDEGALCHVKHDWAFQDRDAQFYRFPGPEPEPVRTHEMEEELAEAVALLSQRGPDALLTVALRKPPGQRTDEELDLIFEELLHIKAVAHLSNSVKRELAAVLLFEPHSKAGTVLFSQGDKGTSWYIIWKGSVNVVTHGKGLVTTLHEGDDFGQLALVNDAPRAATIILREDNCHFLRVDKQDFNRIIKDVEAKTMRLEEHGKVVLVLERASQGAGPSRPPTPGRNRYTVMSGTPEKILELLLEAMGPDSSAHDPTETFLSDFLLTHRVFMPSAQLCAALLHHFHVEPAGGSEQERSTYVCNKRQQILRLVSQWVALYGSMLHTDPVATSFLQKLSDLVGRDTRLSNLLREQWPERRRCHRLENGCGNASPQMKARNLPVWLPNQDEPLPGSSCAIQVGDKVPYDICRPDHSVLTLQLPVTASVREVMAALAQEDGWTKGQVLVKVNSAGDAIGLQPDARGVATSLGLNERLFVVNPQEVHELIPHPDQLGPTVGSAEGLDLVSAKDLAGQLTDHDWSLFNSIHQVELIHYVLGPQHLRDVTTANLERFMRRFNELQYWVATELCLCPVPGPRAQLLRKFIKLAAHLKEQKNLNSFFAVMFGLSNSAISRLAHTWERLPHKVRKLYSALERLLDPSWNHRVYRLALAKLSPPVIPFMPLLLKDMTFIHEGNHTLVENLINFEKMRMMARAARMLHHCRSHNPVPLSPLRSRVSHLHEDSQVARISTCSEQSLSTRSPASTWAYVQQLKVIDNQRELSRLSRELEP
Method in brief: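 Rap1B-BODIPY-GDP 250 nM + GDP 50 uM; cpds 7-pt, final 9.74 nM–152 uM (activator mode) or from 7.32 nM upwards (inhibitor mode); RT; FI 480/540 nm at 5 and 30 min, then ± cAMP, reread.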

[6] = NCATS anti-infectives library activity on the primary C. elegans qHTS viability assay (AID 1745855; calls by dose curve; note: potency is the fitted concentration of half-maximal effect)
Method in brief: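 Titration-based screen in worms: eggs hatched overnight in M9, L1 larvae fed TOP10 capsules in S medium with compound, incubated 21 °C for 7 days; fluorescent objects gated by size and intensity at days 0, 3 and 7.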

[7] = target: Nuclear receptor subfamily 1 group I member 3 (Homo sapiens) (UniProt Q14994); experiment: Primary qHTS for antagonist of constitutive androstane receptor (CAR) against the NCATS DSHEA and TCM libraries (AID 1794836); details: CAR reporter cell assay, antagonist mode, luciferase; note: potency is the fitted concentration of half-maximal effect
Chain of UniProt Q14994 (Q14994 whole entry, looked up): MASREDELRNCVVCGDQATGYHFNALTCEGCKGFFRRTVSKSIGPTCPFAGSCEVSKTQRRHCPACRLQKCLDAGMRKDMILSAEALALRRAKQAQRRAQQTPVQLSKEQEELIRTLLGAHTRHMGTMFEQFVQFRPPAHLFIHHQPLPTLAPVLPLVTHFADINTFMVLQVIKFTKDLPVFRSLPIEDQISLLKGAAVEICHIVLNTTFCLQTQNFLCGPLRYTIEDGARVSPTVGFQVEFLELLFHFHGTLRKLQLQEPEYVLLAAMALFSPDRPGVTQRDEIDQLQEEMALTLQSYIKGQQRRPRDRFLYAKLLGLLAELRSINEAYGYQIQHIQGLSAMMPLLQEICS
Method in brief: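 Antagonist mode: CAR reporter luminescence (ONE-Glo) in HepG2-CYP2B6-hCAR cells stimulated with 48 uM CITCO (final) over 24 h at 37 C, compounds titrated; viability read first by CellTiter-Fluor fluorescence.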

[8] = Viability counterscreen for antagonist of constitutive androstane receptor (CAR) against the NCATS DSHEA and TCM libraries (AID 1794837); details: CAR reporter cell line viability counterscreen, qHTS;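 note: potency is the fitted concentration of half-maximal effect; compound exposure lasted 24 h before viability reading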
Method in brief: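 Fluorescence from CellTiter-Fluor reports live-cell protease activity in HepG2-CYP2B6-hCAR cells treated for 24 h with substances alongside 48 uM CITCO.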
Tags give direction and shape of the fitted curve.

CCC1CN2CCc3cc(OC)c(OC)cc3C2CC1CC1=NCCc2cc(O)c(OC)cc21 (configuration not stated)
Potency [1]: inconclusive: 14.2 µM [inhibitor, single point] | Potency [2]: inconclusive: 4.62 µM [inhibitor, partial curve]

CCC(C)/C=C(C)/C=C/C1=CC2=C(Cl)C(=O)C(C)(OC(C)=O)C(=O)C2=CO1 (configuration not stated)
Potency [1]: inconclusive: 20.1 µM [inhibitor, single point] | Potency [3]: inactive | Potency [2]: active: 1.31 µM

N#C/C(=C/c1ccc(O)c(O)c1)C(N)=S
Potency [1]: active: 9.2 µM | Potency [4]: active: 14.3 µM

c1ccc(CCCN2CCN(CCOC(c3ccccc3)c3ccccc3)CC2)cc1
Potency [5]: inconclusive: 0.126 µM [activator, full curve, poor fit]

O=C(O)c1ccnc2cc(C(OCCN3CCCCC3)c3ccccc3Cl)[nH]c12 (configuration not stated)
Potency [6]: inactive

O=C(Oc1ccc([N+](=O)[O-])cc1)N1CCC(C(O)(c2ccc3c(c2)OCO3)c2ccc3c(c2)OCO3)CC1
Potency [6]: inconclusive: 25.8 µM [inhibitor, single point]

C=C(CO)C(=O)O[C@H]1CC(=C)[C@@H]2C[C@H](O)C(=C)[C@@H]2[C@H]2OC(=O)C(=C)[C@@H]21
Potency [7]: active: 22.4 µM | Potency [8]: inconclusive: 15.8 µM [cytotoxic, partial curve]
